Results as given in the supplement of paper PMC3334620.
The full ranking holds about 33,000 sequences; the median of “E-score (-0.5 to 0.5)” is about -0.036, and the highest 2% start at about 0.37. Some of the results follow.

Target: T1, Yer064c (UniProt P40041)
T1 sequence: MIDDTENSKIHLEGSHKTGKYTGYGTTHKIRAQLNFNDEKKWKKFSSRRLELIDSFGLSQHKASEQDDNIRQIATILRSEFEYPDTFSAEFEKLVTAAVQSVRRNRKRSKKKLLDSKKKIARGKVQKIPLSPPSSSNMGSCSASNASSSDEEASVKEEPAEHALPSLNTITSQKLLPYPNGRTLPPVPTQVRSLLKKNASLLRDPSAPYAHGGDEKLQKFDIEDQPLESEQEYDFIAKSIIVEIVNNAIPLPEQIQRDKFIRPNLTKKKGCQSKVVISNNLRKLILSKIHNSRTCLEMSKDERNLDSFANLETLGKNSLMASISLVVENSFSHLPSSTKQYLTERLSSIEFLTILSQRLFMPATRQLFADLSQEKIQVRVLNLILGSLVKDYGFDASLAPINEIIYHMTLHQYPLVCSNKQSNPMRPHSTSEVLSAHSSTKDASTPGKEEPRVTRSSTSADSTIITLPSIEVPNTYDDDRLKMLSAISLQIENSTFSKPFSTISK
Test: PBM E-score (8-mer binding enrichment) (E-score (-0.5 to 0.5)); higher = stronger / more preferred TF binding; most listed sequences are background and not binding sites
Conditions: protein concentration: 200 nM; construct: GST-full length
Method in brief: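 E-scores (a modified Wilcoxon-Mann-Whitney statistic) were assigned by the Universal PBM Analysis Suite to every ungapped eight-base word pooled with its reverse complement. The input came from universal all-10-mer Agilent arrays made double-stranded by primer extension and probed with GST-tagged yeast transcription factors at about 100-200 nM. Fluorescent anti-GST detected bound protein, and masliner normalised the scans.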

| Sequence | PBM E-score |
| --- | --- |
| GATTCACA | 0.375 |
| GTAGGGAA | -0.131 |
| GTGGCTGA | 0.0237 |
| ACAGCTTC | -0.232 |
| GTCTTACA | 0.135 |
| CAAACACC | 0.0494 |
| ATTCCGGC | -0.207 |
| CAATCTGC | -0.183 |
| GATGAGTA | 0.429 |
| CAGCGTCC | -0.124 |
| CTCTAAGA | 0.0416 |
| GACTCAAA | 0.48 |
| CCACTTAG | 0.15 |
| CCTGCCCC | -0.131 |
| AACGCTCA | -0.103 |
| CTATTATC | 0.0272 |
| GGAGGCAC | -0.159 |
| CACCTGTA | -0.103 |
| ACTTACCG | 0.0141 |
| ATACAAAG | 0.201 |
| ACACAACG | -0.0515 |
| ATCGGTGC | -0.146 |

| Sequence | PBM E-score |
| --- | --- |
| AATCATTC | 0.417 |
| ACTAGACC | 0.097 |
| AACTCGCC | -0.0941 |
| CGAGGGCA | -0.274 |
| GCACACGA | 0.0265 |
| ATCGCTAA | 0.0932 |
| AGACCGAA | 0.0789 |
| GAATAGAA | 0.119 |
| CTGCTAAG | -0.0639 |
| GATATCGC | -0.0951 |
| ACGCATGG | -0.0728 |
| ACGTACGG | -0.149 |
| GTGGGTCA | 0.146 |
| AAGGCATA | -0.129 |
| AAGGCAGT | 0.133 |
| AAGCCGTA | -0.038 |
| ATAAGCCC | -0.375 |
| GGATACGA | -0.0195 |
| CATCTAGG | 0.0162 |
| CTTCGTAA | -0.0629 |
| CCTAATAA | -0.129 |
| CCCCAAAA | 0.00289 |

| Sequence | PBM E-score |
| --- | --- |
| ATATACGG | -0.0692 |
| ATGATAAA | 0.0806 |
| CCTCAGGA | -0.0143 |
| ACTCTTTC | 0.303 |
| CCTTCTGA | -0.0564 |
| ATCTAGAA | 0.149 |
| ACTGGGTG | 0.0348 |
| AAAACCCA | -0.0671 |
| GCTCGCAA | -0.0425 |
| CAGGCCTG | -0.15 |
| CGCAGGGA | -0.0887 |
| ACTCGATG | 0.25 |
| AGTGTAGA | 0.0906 |
| TACCCCTA | -0.042 |
| GGTCGGAC | 0.0346 |
| CGCAAGCG | -0.0375 |
| ATATCAAA | 0.124 |
| TAGATCTA | 0.00835 |
| AGCCGTTC | -0.201 |
| CTGCATTC | -0.0186 |
| AAGTCGTC | 0.273 |
| CAACACAC | 0.0236 |

| Sequence | PBM E-score |
| --- | --- |
| GACAGAGC | -0.0875 |
| AGAGGGTC | -0.105 |
| AAAAAGGG | -0.0603 |
| AGGGAAAA | -0.0867 |
| GCTACCCA | -0.00982 |
| AACTGGGA | -0.19 |
| GCTGGCCA | -0.198 |
| ACAGACAA | 0.123 |
| CCTACTTA | -0.091 |
| AAGTCTCT | 0.033 |
| AGACGGGC | -0.335 |
| CAATGTGA | 0.0486 |
| GAGCTCAC | 0.0076 |
| ATCTACAG | -0.118 |
| TATGCGGA | -0.204 |
| ACGGATTC | -0.00359 |
| CGCACGCA | -0.232 |
| AGCTCGGA | -0.183 |
| GTATTTCA | 0.00218 |
| CAGGGACA | 0.111 |
| CACCCCAC | 0.00556 |
| AGTGTTGG | -0.201 |

| Sequence | PBM E-score |
| --- | --- |
| TAGGAAGA | 0.0707 |
| CGAGTACG | 0.175 |
| CAACTACG | -0.0569 |
| GAGGCGCC | -0.121 |
| CGTTGTTA | 0.0945 |
| CGCTGGGA | -0.21 |
| AAATATCG | 0.0289 |
| TCTGTAAA | -0.0296 |
| ACCAAGGT | -0.00843 |
| ACCATCCT | -0.0228 |
| TGCTAGAA | -0.0216 |
| CTGAGGCC | -0.117 |
| GTCTCCTA | 0.0324 |
| GATAATGC | -0.131 |
| GATCGGAA | -0.132 |
| ATTAACTG | 0.296 |
| ACAAAGAA | 0.0748 |
| GAATAAGC | -0.0833 |
| AATCAGCT | 0.389 |
| CAAACCCC | -0.133 |
| CGTGACGC | -0.00579 |
| AACAGCGT | -0.147 |
